Results as given in the supplement of paper PMC4723716.
± gives the uncertainty stated by the source. The full ranking holds about 9,900 compounds; the median of “viability index relative to DMSO control” is about 1, and the lowest 2% start at about 0.85. The list shows a part of the results.

System: Plasmodium falciparum NF54 stage V gametocytes
Test: viability index relative to DMSO control (fraction); higher = less gametocyte killing
Conditions: 2.5 µM, incubation time: 72 h
How it was run: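 Stage V gametocytes of P. falciparum NF54 were held in serum-free screening medium at 0.75% gametocytemia and 1.25% hematocrit, 10 µl per well of a 1,536-well plate, and exposed to compound at 2.5 µM for 72 hr at 37°C under low oxygen. A 3 µl mix of 2.5 µM MitoTracker Red CMXRos with 0.13% saponin was then added for one to two hours, after which one field per well was imaged and red particles of 20–70 µm2 were counted. The viability index equals this count divided by the plate mean from wells given solvent alone.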

[1] = library set: Broad Institute DOS

O=C(C[C@@H]1CC[C@H]2[C@@H](COC[C@@H](O)CN2C(=O)c2ccncc2)O1)NCc1cc(F)cc(F)c1
viability index [1]: 0.964 ± 0.05

Cn1cnc(S(=O)(=O)N2C[C@@H](O)COC[C@@H]3O[C@H](CC(=O)NCc4cccc(F)c4)CC[C@H]32)c1
viability index [1]: 1.067 ± 0.0054

O=C(CC(F)(F)F)N1C[C@H]2[C@@H](c3ccccc31)[C@H](CO)N2CC1CCOCC1
viability index [1]: 0.9885 ± 0.0063

CCCNC(=O)N1C[C@@H]2N[C@H](C1)[C@@H]2c1ccc(-c2ccccc2C)cc1
viability index [1]: 1.04 ± 0.055

CCCNC(=O)C[C@@H]1CC[C@@H]2[C@@H](COc3ccc(NC(=O)CC)cc3C(=O)N2C)O1
viability index [1]: 1.12 ± 0.16

CCS(=O)(=O)N1C[C@]2(CN(C2)C(=O)c2cccnc2)c2c([C@H]1CO)n(C)c1cc(OC)ccc21
viability index [1]: 0.963 ± 0.013

CO[C@@H]1CN(C)C(=O)c2ccc(NS(=O)(=O)CC(F)(F)F)cc2OC[C@@H](C)N(C(=O)NC(C)C)C[C@@H]1C
viability index [1]: 0.987 ± 0.0023

CN(C[C@@H]1N[C@H](CO)[C@H]1c1ccccc1)C(=O)c1ccccn1
viability index [1]: 0.989 ± 0.043

CC(C)C#Cc1ccc([C@H]2[C@@H](CO)N(C(=O)c3cccc(F)c3)[C@H]2C#N)cc1
viability index [1]: 1.12 ± 0.08

CN(C)C(=O)c1cccc(-c2ccc([C@H]3[C@H]4CNC[C@@H]3N4Cc3cccnc3)cc2)c1
viability index [1]: 1.06 ± 0.023

C[C@H](CO)N1C[C@H](C)[C@H](CN(C)C(=O)Nc2cccc(F)c2)Oc2cc(C#CC3(O)CCCC3)ccc2S1(=O)=O
viability index [1]: 1.05 ± 0.092

CCCNC(=O)N1C[C@@H](C)[C@@H](OC)CN(C)C(=O)c2ccc(NC(=O)CC)cc2OC[C@@H]1C
viability index [1]: 1.1 ± 0.02

CO[C@H](CN(C)Cc1ccc(-c2ccccn2)cc1)[C@H](C)CN(C(=O)Nc1ccc(F)cc1)[C@H](C)CO
viability index [1]: 1.03 ± 0.085

O=C(Nc1ccc(F)cc1)N1C[C@H]2[C@@H](c3ccccc31)[C@H](CO)N2C(=O)c1ccncc1
viability index [1]: 1.031 ± 0.0079

COc1cccc(-c2ccc([C@H]3[C@H]4CNC[C@@H]3N4CC3CCCCC3)cc2)c1
viability index [1]: 0.963 ± 0.029

Cc1noc(C)c1NC(=O)Nc1cccc2c1O[C@H](CN(C)Cc1ccc(C(=O)Nc3ccccc3N)cc1)[C@H](C)CN([C@@H](C)CO)C2=O
viability index [1]: 0.951 ± 0.066

CN(C)c1ccc2c(c1)[C@H]1C[C@H](CC(=O)NCc3ccccn3)O[C@H](CO)[C@H]1O2
viability index [1]: 1.01 ± 0.09

O=C(O)C[C@@H]1C[C@@H]2c3cc(NC(=O)Cc4ccncc4)ccc3O[C@@H]2[C@H](CO)O1
viability index [1]: 1.06 ± 0.0013

CO[C@@H](CN(C)CC1CCOCC1)[C@H](C)CN(C(=O)Nc1ccc(F)cc1)[C@H](C)CO
viability index [1]: 0.991 ± 0.11

C[C@H](CO)N1C[C@H](C)[C@@H](CN(C)S(=O)(=O)c2cccs2)Oc2ccc(NC(=O)Nc3cccc4ccccc34)cc2C1=O
viability index [1]: 0.962 ± 0.041

CNC[C@@H]1Oc2ccc(NC(=O)NC3CCCCC3)cc2CC(=O)N([C@@H](C)CO)C[C@H]1C
viability index [1]: 0.979 ± 0.044

CCCC(=O)N1CC[C@@]2(CC1)CN([C@H](CO)c1[nH]c3cc(OC)ccc3c21)C(=O)Cc1ccccn1
viability index [1]: 0.968 ± 0.048

C[C@@H]1CN([C@H](C)CO)C(=O)c2cccc(NC(=O)C3CCOCC3)c2O[C@@H]1CN(C)C(=O)Nc1cccc2ccccc12
viability index [1]: 1.01 ± 0.18

O=C(NCC[C@H]1CC[C@H](NS(=O)(=O)Cc2ccccc2)[C@@H](CO)O1)C1CCCCC1
viability index [1]: 1 ± 0.026

CC(C)CC#Cc1ccc([C@@H]2[C@@H](CO)N3C(=O)CN(S(=O)(=O)c4cccc(F)c4)C[C@@H]23)cc1
viability index [1]: 1 ± 0.013

O=C(CC1CC1)N1CC2(C1)[C@H](c1ccccc1)[C@@H](CO)N2C(=O)c1ccccn1
viability index [1]: 1.11 ± 0.017

CC(C)c1cn(CC[C@H]2CC[C@@H](NS(=O)(=O)c3ccc(F)cc3)[C@@H](CO)O2)nn1
viability index [1]: 1.09 ± 0.092

C[C@@H]1CCCCO[C@@H](CN(C)Cc2ccncc2)[C@@H](C)CN([C@@H](C)CO)C(=O)c2cc(NS(=O)(=O)c3ccc(Cl)cc3)ccc2O1
viability index [1]: 1.09 ± 0.044

COCCNC(=O)C[C@@H]1CC[C@@H]2[C@H](COC[C@@H](O)CN2Cc2ccc(Cl)c(Cl)c2)O1
viability index [1]: 1.15 ± 0.12

Cc1cccc(S(=O)(=O)N2[C@@H]3c4cccc(=O)n4C[C@H]2[C@H](CO)[C@H]3C(=O)N(C)C)c1
viability index [1]: 1.074 ± 0.0077

CC(C)NC(=O)N1[C@H](C#N)[C@H](c2ccc(C#CC3CCCCC3)cc2)[C@@H]1CO
viability index (library set: Broad Institute Blood Stage): 0.822 ± 0.041

COC(=O)C[C@H]1C[C@H]2c3cc(NC(=O)C4CCOCC4)ccc3O[C@H]2[C@H](CO)O1
viability index [1]: 1.07 ± 0.026

C[C@@H]1CN([C@@H](C)CO)C(=O)Cc2cc(NS(=O)(=O)c3ccc(Cl)cc3)ccc2O[C@H]1CN(C)C(=O)Nc1ccc(C(F)(F)F)cc1
viability index [1]: 0.909 ± 0.028

O=C(C1CCOCC1)N1C[C@@H]2[C@H](c3ccccc31)[C@@H](CO)N2C(=O)Cc1ccccn1
viability index [1]: 1.06 ± 0.053

O=C(NCC[C@H]1CC[C@H](NS(=O)(=O)Cc2ccccc2)[C@H](CO)O1)C1CCCCC1
viability index [1]: 0.997 ± 0.084

C[C@@H]1CCCCO[C@@H](CN(C)C(=O)CCCN(C)C)[C@@H](C)CN([C@H](C)CO)C(=O)c2cc(NC(=O)Nc3ccc4c(c3)OCO4)ccc2O1
viability index [1]: 1.055 ± 0.007

C[C@@H]1CN([C@H](C)CO)C(=O)c2cccc(NC(=O)NC3CCCCC3)c2O[C@H]1CN(C)Cc1ccc(C(F)(F)F)cc1
viability index [1]: 1.01 ± 0.083

C[C@@H]1CN([C@@H](C)CO)C(=O)c2c(c3ccccc3n2C)-c2ccccc2CO[C@H]1CN(C)C(=O)[C@H](Cc1ccccc1)N(C)C
viability index [1]: 1.05 ± 0.046

C[C@@H]1CN([C@H](C)CO)C(=O)CCCn2nncc2CO[C@H]1CN(C)C(=O)Nc1ccccc1C(F)(F)F
viability index [1]: 0.9587 ± 0.0074

CO[C@@H]1CN(C)C(=O)c2cc(NC(=O)Nc3c(C)noc3C)ccc2OC[C@@H](C)NC[C@@H]1C
viability index [1]: 0.953 ± 0.054

C/C=C/c1ccccc1[C@H]1[C@H](C#N)N(C(=O)CN2CCOCC2)[C@H]1CO
viability index [1]: 1.08 ± 0.06

CN1CCN(C(=O)C[C@H]2CC[C@H]3[C@H](COc4ccc(NC(=O)C5CCOCC5)cc4C(=O)N3C)O2)CC1
viability index [1]: 1.11 ± 0.069

O=C(C[C@@H]1C[C@H]2c3cc(NC(=O)NC4CCCC4)ccc3O[C@H]2[C@H](CO)O1)NCc1ccccc1F
viability index [1]: 1.04 ± 0.11

OC[C@@H]1[C@@H](c2ccc(-c3cccnc3)cc2)[C@H]2CN(Cc3ccccn3)CCCCN12
viability index [1]: 1.07 ± 0.051

C/C=C/c1ccc([C@@H]2[C@H](CO)N[C@H]2CN(C(=O)c2ccccc2F)C(C)C)cc1
viability index [1]: 1.01 ± 0.047
